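Values below derive from 48-hour exposures of cells grown in 96-well plates, with endpoints linearly interpolated between the two concentrations bracketing the appropriate inhibition level. GI50: concentration for 50% inhibition of growth. TGI: total growth inhibition.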 Peptide text beside a SMILES is read from it.
Tested on: NCI-H322M lung
Experiment: NCI tumour cell line growth inhibition, 48 h

CNCc1cccc2c1OCCCCCCC(C)(O)CC(C)(C)S(=O)(=O)c1ccc(cc1)-c1cnc(N)c(n1)C(=O)N2 (stereo unspecified)
GI50: 1.45 µM
TGI: 4.94 µM

Cc1ccc(C2=Nn3c(nnc3-c3ccccc3)SC2)cc1
GI50: 5.16 µM
TGI: > 100 µM

CC(=O)NC(C)(C)C(=O)N[C@@H](C)C(=O)NC(C)(C)C(=O)N[C@@H](C)C(=O)NC(C)(C)C(=O)N[C@@H](C)C(=O)N[C@@H](CCC(N)=O)C(=O)NC(C)(C)C(=O)N[C@H](C(=O)NC(C)(C)C(=O)NCC(=O)N[C@@H](CC(C)C)C(=O)NC(C)(C)C(=O)N1CCC[C@H]1C(=O)N[C@H](C(=O)NC(C)(C)C(=O)NC(C)(C)C(=O)N[C@@H](CCC(N)=O)C(=O)N[C@@H](CCC(N)=O)C(=O)N[C@H](CO)CC1CCCCC1)C(C)C)C(C)C (HELM PEPTIDE1{[ac].[Aib].A.[Aib].A.[Aib].A.Q.[Aib].V.[Aib].G.L.[Aib].P.V.[Aib].[Aib].Q.Q.[OC[C@H](CC1CCCCC1)N[*:1]]}$$$$V2.0)
GI50: > 5 µM
TGI: > 5 µM

Source: PubChem BioAssay (NCI)
